{"source": "paper PMC4336329", "about": "(PLoS ONE, 2015)", "note": "Screen size: about 310,000 compounds; about 2,200 (0.71%) showed an effect of 50% or more. The effect is printed as a negative number. The list shows a part of the results.", "data": [{"molecular_target": "human ether-à-go-go-related gene (hERG) potassium channel (human, UniProt Q12809)", "sequence (Q12809 whole entry, looked up)": "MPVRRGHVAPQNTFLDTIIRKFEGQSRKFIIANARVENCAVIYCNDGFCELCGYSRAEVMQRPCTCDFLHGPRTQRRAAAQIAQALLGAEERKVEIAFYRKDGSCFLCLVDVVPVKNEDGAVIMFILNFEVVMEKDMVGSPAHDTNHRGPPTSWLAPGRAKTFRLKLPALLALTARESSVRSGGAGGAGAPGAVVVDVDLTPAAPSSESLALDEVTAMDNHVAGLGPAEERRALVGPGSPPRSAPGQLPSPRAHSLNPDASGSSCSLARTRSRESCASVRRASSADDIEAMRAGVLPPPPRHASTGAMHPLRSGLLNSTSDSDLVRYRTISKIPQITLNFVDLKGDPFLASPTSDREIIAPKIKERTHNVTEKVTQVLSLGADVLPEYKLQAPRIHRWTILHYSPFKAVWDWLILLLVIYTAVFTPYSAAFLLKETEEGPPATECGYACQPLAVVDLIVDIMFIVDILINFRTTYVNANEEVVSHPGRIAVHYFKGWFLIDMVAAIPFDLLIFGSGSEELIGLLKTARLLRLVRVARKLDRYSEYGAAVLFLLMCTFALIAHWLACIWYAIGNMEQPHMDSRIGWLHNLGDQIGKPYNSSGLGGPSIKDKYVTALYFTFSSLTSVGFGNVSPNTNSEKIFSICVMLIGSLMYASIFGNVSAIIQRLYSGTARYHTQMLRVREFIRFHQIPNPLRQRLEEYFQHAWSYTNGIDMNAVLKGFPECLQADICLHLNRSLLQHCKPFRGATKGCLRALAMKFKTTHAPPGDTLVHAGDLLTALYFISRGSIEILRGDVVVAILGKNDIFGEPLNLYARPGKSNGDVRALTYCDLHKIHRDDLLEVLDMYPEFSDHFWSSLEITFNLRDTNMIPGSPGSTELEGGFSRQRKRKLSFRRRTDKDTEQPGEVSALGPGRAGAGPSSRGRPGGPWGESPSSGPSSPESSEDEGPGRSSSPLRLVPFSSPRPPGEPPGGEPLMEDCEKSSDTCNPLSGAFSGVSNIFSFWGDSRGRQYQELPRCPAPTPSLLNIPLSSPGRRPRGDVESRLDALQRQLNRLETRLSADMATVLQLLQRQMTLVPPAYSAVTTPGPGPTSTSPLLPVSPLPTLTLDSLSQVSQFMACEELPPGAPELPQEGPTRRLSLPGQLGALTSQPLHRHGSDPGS", "assay": "primary screen, population patch clamp on CHO cells stably expressing hERG", "units": {"hERG current change (%, negative = inhibition) at 1uM": "%"}, "values": [{"smiles": "O=C(NC1C/C(=N/O)c2cc3c(cc21)OCO3)C(F)(F)F", "note": "(centres unmarked)", "hERG current change (%, negative = inhibition) at 1uM": 15.4}, {"smiles": "CSc1ccc(CN2CCC(CO)(CCOc3ccccc3)CC2)cc1", "hERG current change (%, negative = inhibition) at 1uM": -81.2}, {"smiles": "CCN(c1ccc(NC(=O)COC(=O)/C=C/c2cccs2)cc1)C(C)C", "hERG current change (%, negative = inhibition) at 1uM": 14.7}, {"smiles": "CC(C)c1nc2oc3c(NCC4CCCO4)ncnc3c2c2c1CCC2", "note": "(centres unmarked)", "hERG current change (%, negative = inhibition) at 1uM": -7.31}, {"smiles": "COc1ccc(/C=C/C(=O)NCCCn2ccnc2)cc1", "hERG current change (%, negative = inhibition) at 1uM": 2.77}, {"smiles": "O=C(NC1CCCCCCC1)C1CCN(c2nc3ccccc3o2)CC1", "hERG current change (%, negative = inhibition) at 1uM": -10.5}, {"smiles": "Cc1ccc(OCc2nc(C#N)c(NCc3ccco3)o2)cc1", "hERG current change (%, negative = inhibition) at 1uM": 5.31}, {"smiles": "Cc1ccc(-c2nnc(N3CCCCCC3)c3ccccc23)cc1", "hERG current change (%, negative = inhibition) at 1uM": 8.57}, {"smiles": "COc1ccc(N2CCN(C(=O)CN(c3cccc(Br)c3)S(C)(=O)=O)CC2)cc1", "hERG current change (%, negative = inhibition) at 1uM": 2.55}, {"smiles": "COc1ccccc1CC(=O)Nc1ccc(S(=O)(=O)N(C)C2CCN(C)CC2)cc1", "hERG current change (%, negative = inhibition) at 1uM": 5.27}, {"smiles": "O=C(CNC(=O)Cc1ccccc1)NCC(=O)N1CCN(C(c2ccccc2)c2ccccc2)CC1", "hERG current change (%, negative = inhibition) at 1uM": 9.45}, {"smiles": "O=C1CCCC2=C1C(c1ccc(O)c(Br)c1)C1=C(CCCC1=O)N2c1ccccc1", "hERG current change (%, negative = inhibition) at 1uM": 7.71}, {"smiles": "Br.CCOc1ccc2c(c1)nc(SCC(=O)c1ccc(Br)s1)n2C", "hERG current change (%, negative = inhibition) at 1uM": 14.8}, {"smiles": "O=C(COC(=O)CSc1ccc(F)cc1)NCC1CCCCC1", "hERG current change (%, negative = inhibition) at 1uM": 10.7}, {"smiles": "COC(=O)c1ccc(NC(=O)CN(c2ccc(C)cc2)S(=O)(=O)c2c(C)n[nH]c2C)cc1", "hERG current change (%, negative = inhibition) at 1uM": 9.45}, {"smiles": "COc1ccc(N(CC(=O)N2CCN(c3cc(C)ccc3C)CC2)S(=O)(=O)c2c(C)noc2C)cc1", "hERG current change (%, negative = inhibition) at 1uM": 14.7}, {"smiles": "Cl.Nc1nc(-c2ccc3c(c2)OCCO3)cs1", "hERG current change (%, negative = inhibition) at 1uM": 14.3}, {"smiles": "Cc1ccc(S(=O)(=O)N/N=C\\c2cn(-c3ccccc3)nc2-c2ccccc2)cc1", "hERG current change (%, negative = inhibition) at 1uM": 14.2}, {"smiles": "COc1cc2c(cc1OC)C(C(=O)NCCC(C)C)C1CCCCN1C2=O", "note": "(centres unmarked)", "hERG current change (%, negative = inhibition) at 1uM": 11.3}, {"smiles": "O=C1COc2ccc(C(=O)COC(=O)c3ccc(S(=O)(=O)C(F)F)cc3)cc2N1", "hERG current change (%, negative = inhibition) at 1uM": -12.9}, {"smiles": "COc1cc(CC(=O)OCC(=O)NCCc2ccc(S(N)(=O)=O)cc2)cc(OC)c1OC", "hERG current change (%, negative = inhibition) at 1uM": 6.76}, {"smiles": "Cc1ccc(S(=O)(=O)c2nc(-c3ccco3)oc2N2CCC(C)CC2)cc1", "hERG current change (%, negative = inhibition) at 1uM": 6.26}, {"smiles": "CCn1c(SCC(=O)Nc2cccc(S(=O)(=O)N(C)c3ccccc3)c2)nnc1C1CC1", "hERG current change (%, negative = inhibition) at 1uM": -0.458}, {"smiles": "Nn1c(Cc2ccccc2F)nnc1SCC(=O)Nc1cccc(S(=O)(=O)NC2=NCCCCC2)c1", "hERG current change (%, negative = inhibition) at 1uM": 1.4}, {"smiles": "CSc1nnc(-c2cc3c(-c4ccccc4)nn(C)c3s2)n1C", "hERG current change (%, negative = inhibition) at 1uM": 6.51}, {"smiles": "CC(C)[C@H](NC(=O)c1ccco1)C(=O)OCC(=O)Nc1ccc(F)cc1", "hERG current change (%, negative = inhibition) at 1uM": 9.01}, {"smiles": "Cc1ccc(NC(=O)C2C(=O)N(C)c3ccccc32)cc1", "note": "(centres unmarked)", "hERG current change (%, negative = inhibition) at 1uM": -1.93}, {"smiles": "O=C(c1cc2c(ccc3ccccc32)oc1=O)N1CCN(CCO)CC1", "hERG current change (%, negative = inhibition) at 1uM": 22.7}, {"smiles": "CCO[C@H]1OC(C(=O)Nc2ccccc2)=C[C@@H](c2cn(C(C)=O)c3ccccc23)[C@@H]1CCCO", "hERG current change (%, negative = inhibition) at 1uM": 3.67}, {"smiles": "Cc1cccc(C(=O)NC(NCCc2ccccc2)C(Cl)(Cl)Cl)c1", "note": "(centres unmarked)", "hERG current change (%, negative = inhibition) at 1uM": 8.23}, {"smiles": "COc1cc(NC(=O)c2nccnc2N)cc(C(=O)Nc2cccc(C(F)(F)F)c2)c1", "hERG current change (%, negative = inhibition) at 1uM": -4.62}, {"smiles": "COc1ccc(Oc2coc3c(CN4CCOCC4)c(O)ccc3c2=O)cc1", "hERG current change (%, negative = inhibition) at 1uM": -3.23}, {"smiles": "C/C(CCc1ccccc1)=N\\NC(=O)c1ccc(CN2CCOCC2)cc1", "hERG current change (%, negative = inhibition) at 1uM": 14.8}, {"smiles": "Nc1cccc(Oc2ccc([N+](=O)[O-])cc2)c1", "hERG current change (%, negative = inhibition) at 1uM": 7.1}, {"smiles": "C/C=C/c1ccc(OCCCCN2C(=O)NC(C)(C)C2=O)c(OC)c1", "hERG current change (%, negative = inhibition) at 1uM": -2.24}, {"smiles": "Cc1ccc2sc(NC(=O)CN3C(=O)CCC3=O)nc2c1C", "hERG current change (%, negative = inhibition) at 1uM": 10.5}, {"smiles": "COc1ccccc1NC(=O)CC1C(=O)Nc2ccccc2N1C(=O)c1ccccc1", "note": "(centres unmarked)", "hERG current change (%, negative = inhibition) at 1uM": 13.6}, {"smiles": "CCCn1c(=O)c2ccccc2n2c(=S)[nH]nc12", "hERG current change (%, negative = inhibition) at 1uM": 15.5}, {"smiles": "CCN1C(=O)CC(C(=O)NCCc2ccc(S(N)(=O)=O)cc2)SC1=Nc1ccc(OC)cc1", "note": "(centres unmarked)", "hERG current change (%, negative = inhibition) at 1uM": 13.2}, {"smiles": "Cc1ccc(S(=O)(=O)NCCC(=O)NCc2ccccn2)cc1", "hERG current change (%, negative = inhibition) at 1uM": 10.2}, {"smiles": "c1ccc(OCc2nn3c(-c4n[nH]c5c4CCC5)nnc3s2)cc1", "hERG current change (%, negative = inhibition) at 1uM": 5.36}, {"smiles": "COc1ccc(CN(Cc2cccn2C)S(=O)(=O)c2ccc(C)cc2)cc1", "hERG current change (%, negative = inhibition) at 1uM": 9.77}, {"smiles": "CCOC(=O)c1sc(Nc2ccccc2Cl)nc1C.O=C(O)C(=O)O", "hERG current change (%, negative = inhibition) at 1uM": 8.02}, {"smiles": "CCN(CC)S(=O)(=O)c1cccc(NC(=O)c2ccc(Sc3nncn3C)c([N+](=O)[O-])c2)c1", "hERG current change (%, negative = inhibition) at 1uM": 4.75}, {"smiles": "O=C(N/N=C/c1cccnc1)c1ccccc1Br", "hERG current change (%, negative = inhibition) at 1uM": 19.8}, {"smiles": "O=C(O)CSCC(=O)Nc1cccc(C(F)(F)F)c1", "hERG current change (%, negative = inhibition) at 1uM": -7.23}, {"smiles": "CC(CC(=O)Nc1cccc(Cl)c1)c1ccccc1", "note": "(centres unmarked)", "hERG current change (%, negative = inhibition) at 1uM": 9.16}, {"smiles": "Cc1cccc(Oc2ncnc(N)c2[N+](=O)[O-])c1", "hERG current change (%, negative = inhibition) at 1uM": 6.59}, {"smiles": "CN(N)C(=S)Nc1ccc(Cl)cc1", "hERG current change (%, negative = inhibition) at 1uM": 2.36}, {"smiles": "O=C(O)CCCN1C(=O)/C(=C\\C(Cl)=C\\c2ccccc2)SC1=S", "hERG current change (%, negative = inhibition) at 1uM": 10.1}, {"smiles": "O=C(NC1CC(=O)N(c2ccc(Cl)cc2)C1)C1CC1", "note": "(centres unmarked)", "hERG current change (%, negative = inhibition) at 1uM": 4.3}, {"smiles": "COc1ccccc1N1CCN(C(=O)c2cc(-c3ccco3)on2)CC1", "hERG current change (%, negative = inhibition) at 1uM": 3.37}, {"smiles": "O=C1c2ccccc2C(=O)N1OCc1cccc(Cl)c1", "hERG current change (%, negative = inhibition) at 1uM": 17.5}, {"smiles": "O=C(COc1ccccc1[N+](=O)[O-])Nc1cccnc1", "hERG current change (%, negative = inhibition) at 1uM": 1.74}, {"smiles": "Cc1cccc(C)c1N1C(=O)CC(N2CCSCC2)C1=O", "note": "(centres unmarked)", "hERG current change (%, negative = inhibition) at 1uM": 1.04}, {"smiles": "Cc1cccc(C)c1NC(=O)C(=O)NCCOc1ccc(Cl)cc1", "hERG current change (%, negative = inhibition) at 1uM": 11.5}]}]}
